The campaign covered roughly 410,000 compounds. About 260 (0.063%) were called active. This list was built around the results that the source calls inconclusive (neither active nor inactive); the mix of calls is not that of the screen. Calls follow the shape of the dose curve; as a rule, active = well fitted activation curve with a large enough effect; inconclusive = small, poorly fitted or top-dose-only effect; inactive = no such curve, though single readings can be large or run the other way. No potency is given beside an inconclusive call; the fits are too rough.
Assay: qHTS for compounds that reverse cellular toxicity of Amyloid beta (A-beta) peptide in yeast: Primary Screen; also: nearly all actives have a fitted effect of over 55% in size
Conditions: yeast expressing A-beta42, growth rescue, OD600, 48 h; growth rescue: at 46.1 µM (top of the series), 0% DMSO, 100% iron-clioquinol control
In short: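 Yeast A-beta toxicity model in growth medium with pinned compounds, 48 h at 30 C; growth read as absorbance at 600 nm. Normalized to FeCl3/clioquinol equimolar mix (positive) and DMSO (negative).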
With `Cc1cccc(OCc2cc(=O)n3c4c(sc3n2)CCCC4)c1C` the “growth rescue” value was inactive: -4.53%.
With `Cn1nnc(NC(=S)NC(=O)c2cccc3ccccc23)n1` the Potency was active: 11.2 µM.
For `COc1ccc(CNC(=O)c2sc3nc[nH]c(=O)c3c2C)cc1`, the “growth rescue” value was inactive: -3.29%.
In the case of `COc1cccc(C(C)(O)c2nc(-c3cc(F)cc(F)c3)cs2)c1` (stereo unspecified), the Potency is reported as inconclusive [activator, partial curve].
In the case of `Cc1ccc(-n2c(CCC(=O)O)ccc2-c2cccs2)cc1Cl`, the Potency is reported as inconclusive [activator, partial curve, poor fit].
For `N#C/C(=N/Nc1ccccc1F)C(=N)N1CCOCC1`, the Potency was inconclusive [activator, single point].
In the case of `COc1ccc(OC)c(NC(=O)C(=O)NNC(=O)C23CC4CC(CC(C4)C2)C3)c1`, the Potency is reported as inconclusive [activator, single point].
For `Cc1ccc(-n2c(SCC(N)=O)nnc2-c2ccc(S(=O)(=O)N3CCCCC3)cc2)c(C)c1`, the “growth rescue” value was inactive: 8.33%.
With `CCCn1c(Nc2ccccc2C)nc2ccccc21` the Potency was inconclusive [activator, partial curve, poor fit].
In the case of `Clc1ccc(CONc2ncnc3nonc23)c(Cl)c1`, the Potency is reported as inconclusive [activator, partial curve, poor fit].
In the case of `CC(C)(Oc1ccc(Cl)cc1)C(=O)OCC(=O)NCCc1ccccc1`, the Potency is reported as inconclusive [activator, partial curve].
For `C/C(=N\NC(=S)NCc1ccccc1)c1ccco1`, the Potency was active: 11.2 µM.
In the case of `COc1ccc(C(=O)NC(=S)Nc2ccc(N3CCOCC3)cc2)cc1Cl`, the Potency is reported as inconclusive [activator, single point].
With `CN1/C(=C\C(=O)CSc2nnc(NCc3ccccc3)s2)C(C)(C)c2ccccc21` the Potency was inconclusive [activator, single point].
For `COc1ccc(C(=O)Nc2cc(C(=O)O)cc(C(=O)O)c2)cc1Cl`, the “growth rescue” value was inactive: -18.8%.
For `c1ccc(-c2nc(N3CCN(c4ccccc4)CC3)nc(-n3ccnc3)n2)cc1`, the “growth rescue” value was inactive: -11.5%.
With `Cc1ccccc1Cn1nnc2c(=O)[nH]c(C3CCN(C(=O)c4ccccc4Cl)CC3)nc21` the “growth rescue” value was inactive: 17.8%.
For `CCOCCCN(C(=O)c1snc(C(N)=O)c1N)C(C(=O)NCCC(C)C)c1ccc(Cl)cc1` (stereo unspecified), the Potency was inconclusive [activator, full curve].
In the case of `COc1ccc(CNC(=O)CCCn2c(=O)c3cccn3c3ccc(F)cc32)cc1OC`, the “growth rescue” value is reported as inactive: -7.24%.
With `CCCN1C(=O)/C(=C/c2ccc3c(c2)OCO3)NC1=S` the Potency was inconclusive [activator, partial curve].
With `O=C(NCc1ccccc1)C(CCc1ccccc1)n1c(=O)c(-c2cc3ccccc3[nH]2)nc2ccccc21` (stereo unspecified) the “growth rescue” value was inactive: 11%.
With `C/C(=N/Nc1ncc(Br)cn1)c1ccc(Br)cc1` the “growth rescue” value was inactive: -0.491%.
With `COc1ccc(C2=NN(C(=O)CCC(=O)O)C(c3ccccc3OC)C2)cc1` (stereo unspecified) the Potency was inconclusive [activator, partial curve].
With `CC(C)(NO)/C(=N\O)c1ccc(Cl)cc1` the Potency was inconclusive [activator, single point].
For `Cc1cc(C)cc(OCC(=O)O/N=C(\N)c2ccccn2)c1`, the Potency was inconclusive [activator, partial curve, poor fit].
In the case of `COc1ccccc1CNC(=O)c1cc2cccc3c2n1CC(C)S3` (stereo unspecified), the Potency is reported as inconclusive [activator, partial curve, poor fit].
For `Cn1nc(C(=O)NCc2ccc(F)cc2)c2c1-c1ccccc1SC2`, the “growth rescue” value was inactive: 4.87%.
With `Cc1ccc(OCCCC(=O)NNC(=O)c2ccccn2)cc1` the Potency was inconclusive [activator, partial curve, poor fit].
In the case of `Cc1ccc(Nc2ccc3cc(S(=O)(=O)N4CCCCC4)ccc3n2)cc1F`, the Potency is reported as inconclusive [activator, partial curve, poor fit].
For `NC(=O)c1cc([N+](=O)[O-])ccc1Nc1ccccc1`, the Potency was inconclusive [activator, single point].
For `Cc1ccc(C)c(SCC(=O)NC(=O)NC2CCCC2)c1`, the Potency was inconclusive [activator, partial curve, poor fit].
In the case of `N#Cc1c(-c2ccncc2)cc(-c2ccc(F)cc2)nc1N`, the Potency is reported as active: 5.62 µM.
With `CCn1c(=O)c2cc(C(=O)NC3CCC(C)CC3)sc2c2ccccc21` (stereo unspecified) the “growth rescue” value was inactive: -18.4%.
With `Cc1noc(C)c1-c1ccc(C(=O)Nc2cccc(C(F)(F)F)c2)c2occc12` the Potency was inconclusive [activator, single point].
With `COc1cccc(NC(=O)N(Cc2c[nH]c3ccccc23)C2CCCCCC2)c1` the Potency was inconclusive [activator, single point].
With `CC1=CC(C)(C)NC(=S)N1C(C)c1ccccc1` (stereo unspecified) the Potency was active: 10 µM.
With `Cc1ccc(S(=O)(=O)NCCC(=O)OCC(=O)N2CCCC2=O)cc1C` the Potency was inconclusive [activator, single point].
In the case of `COc1ccc(OC)c(NC(=O)Cn2c(=O)n(-c3cccc(C)c3)c(=O)c3c2c2cc(C)ccc2n3C)c1`, the “growth rescue” value is reported as inactive: -2.28%.
In the case of `O=C(CCC1N=C2c3ccccc3N=C(SCc3cccc(F)c3)N2C1=O)NCCc1ccccc1` (stereo unspecified), the “growth rescue” value is reported as inactive: -5.23%.
For `Cc1ccc(SCC(=O)OCc2csc(CC(=O)Nc3ccccc3C)n2)cc1C`, the Potency was inconclusive [activator, partial curve].
In the case of `O=C(CCC1N=C2c3ccccc3N=C(SCc3ccccc3F)N2C1=O)NCc1ccccc1` (stereo unspecified), the “growth rescue” value is reported as inactive: 3.74%.
With `COc1ccc(/C=N/Nc2ccc(C(=O)O)cc2)cc1OC` the “growth rescue” value was inactive: 13.1%.
For `CCCOc1ccc(CNC(=O)c2ccc3c(c2)N(Cc2ccccc2)CCS3)cc1`, the “growth rescue” value was inactive: -22.3%.
For `O=C(N/N=C/c1c(O)ccc2ccccc12)C(=O)N1CCCC1`, the Potency was inconclusive [activator, full curve, poor fit].
In the case of `CCNC(=S)N(CCc1c(C)[nH]c2ccc(Cl)cc12)Cc1ccco1`, the Potency is reported as inconclusive [activator, single point].
With `O=C(NN1C(=O)C2C3c4ccccc4C(c4ccccc43)C2C1=O)c1ccc(Cl)cc1` (stereo unspecified) the Potency was inconclusive [activator, partial curve, poor fit].
In the case of `O=C(NNc1nc2cc3c(cc2s1)OCCO3)c1ccc(F)cc1`, the Potency is reported as inconclusive [activator, full curve, poor fit].
In the case of `Cc1ccc(S(=O)(=O)N2CCN(C(=O)COC(=O)Cc3cccc(C(F)(F)F)c3)CC2)c(C)c1`, the Potency is reported as inconclusive [activator, partial curve, poor fit].
For `S=c1nc(C2CCCCC2)[nH]c2ccccc12`, the Potency was inconclusive [activator, partial curve].
In the case of `S=C(Nc1ccc2[nH]ccc2c1)NC1CCCCC1`, the Potency is reported as inconclusive [activator, single point].
For `COc1ccc(C(=O)O/N=C(\N)c2ccc(Cl)cc2)cc1`, the “growth rescue” value was inactive: -14.1%.
With `Cc1ccc(C(C)C)c(OC(C)C(=O)NCC2(N(C)C)CCCCC2)c1` (stereo unspecified) the “growth rescue” value was inactive: -6.9%.
In the case of `Cc1cc(C(=O)N/N=C2\CCCC(C)C2)n[nH]1` (stereo unspecified), the Potency is reported as inconclusive [activator, partial curve].
In the case of `CCOC(=O)N1CCN(S(=O)(=O)c2ccc(OC)c3ccccc23)CC1`, the Potency is reported as inconclusive [activator, full curve].
For `COc1cc(Cl)c(C)cc1NC(=O)c1ccc(S(C)(=O)=O)cc1`, the Potency was inconclusive [activator, partial curve, poor fit].
With `CCOC(=O)c1c(C)nn(-c2ccc(NC(=O)/C=C/C(=O)O)cc2)c1C` the Potency was inconclusive [activator, partial curve, poor fit].
In the case of `Cc1ccc(Cn2c(C(C)NC(=O)c3ccccc3)nc3ccccc32)cc1` (stereo unspecified), the “growth rescue” value is reported as inactive: -2.94%.
With `O=C(Nc1ccc(C(F)(F)F)cc1)c1ccccc1Br` the Potency was inconclusive [activator, partial curve, poor fit].
With `Oc1ccc(/C=N/n2cc(-c3ccccc3)[nH]c2=S)cc1` the Potency was inconclusive [activator, single point].
With `CN(C)C(=O)c1ccc(Nc2ncnc3sc4c(c23)CCCCC4)cc1` the Potency was inconclusive [activator, single point].
For `CC(O)(c1ccc(F)c(F)c1)c1nc(-c2ccccc2)cs1` (stereo unspecified), the Potency was inconclusive [activator, single point].
In the case of `CC1CCc2sc(C(=O)Nc3nnc(SCc4ccc(F)cc4)s3)cc2C1` (stereo unspecified), the “growth rescue” value is reported as inactive: -7.55%.
In the case of `Cc1ccccc1NC(=O)c1ccc2c(c1)C(=O)N(CCC(C)C)C2=O`, the Potency is reported as inconclusive [activator, full curve].
For `O=C(COc1ccc2ccccc2c1)NC1CC(=O)N(c2cccc(F)c2)C1` (stereo unspecified), the Potency was inconclusive [activator, single point].
In the case of `CCOc1ccc(S(=O)(=O)N2CCCC2)cc1`, the “growth rescue” value is reported as inactive: 6.51%.
In the case of `O=C(c1cccn1-c1nnc(N2CCCC2)s1)N1CCN(c2ccc(Cl)cc2)CC1`, the “growth rescue” value is reported as inactive: -25.2%.
In the case of `C/C(=N\OC(=O)Nc1ccc(Cl)cc1)c1ccc(F)c(F)c1`, the “growth rescue” value is reported as inactive: -48.1%.
With `CC1(C(=O)NCc2cccc3ccccc23)CCN1Cc1ccc(OC(F)(F)F)cc1` (stereo unspecified) the Potency was inconclusive [activator, single point].
With `N/C(CC1CC1(Cl)Cl)=N\OC(=O)c1ccccc1` (stereo unspecified) the “growth rescue” value was inactive: -7.16%.
For `COC(=O)C1=C(C(=O)OC)[N+]2=C3N(C(=O)NC2(C)C)[C@H](CO)C[C@@]32c3ccccc3N(Cc3ccccc3)[C@@H]12`, the “growth rescue” value was inactive: -11.8%.
In the case of `Cc1ccc(N2CC(C)Cn3c2nc2c3c(=O)n(Cc3cccc(Cl)c3)c(=O)n2C)cc1` (stereo unspecified), the “growth rescue” value is reported as inactive: -0.313%.
Potency is read from the fitted curve at half-maximal effect; tags tell the direction and shape of the fitted curve.
